This is an account of results in PubChem BioAssay AID1508624 (National Center for Advancing Translational Sciences (NCATS), 2021).

Out of some 48,000 compounds screened, about 120 (0.25%) were called active. Not shown: some 4% with an inconclusive outcome. Calls come from the whole dose curve; as a rule, active = well fitted activation curve with a large enough effect; inconclusive = small, poorly fitted or top-dose-only effect, or another doubt; inactive = no such curve, though single readings can be large or run the other way. The list shows a part of the results.

This assay in a line: Primary qHTS for Identification of Small Molecule Activators of Huntingtin-Antisense Promoter Activity. Note: nearly all actives have a fitted effect of over 55% in size. Particulars: HEK293 HTT-AS promoter firefly luciferase reporter, 24 h; series mostly up to 57.5 µM; activity change, positive = activation: at the top concentration. Put shortly:
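Firefly luciferase signal from promoter-reporter HEK293 cells was scaled between vehicle (0%) and zero RLU (-100%). Compounds were tested at final concentrations of up to 57.5 uM over 24 h at 37 degrees C. PTC124 at 50 uM final served as control inhibitor.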
Take `Cc1ccc(C)c(S(=O)(=O)c2nnn3c2nc(Nc2ccc(C)c(C)c2)c2ccccc23)c1`: the “activity change, positive = activation” value is inactive: 4.89%. The figure for `COc1cccc(NC(=O)CCN2CCN(c3ccccc3)CC2)c1` is inactive: -8.83%; for `COc1cccc(C(=O)NCC(c2ccc(N(C)C)cc2)N2CCc3ccccc32)c1` (stereo not drawn) it is inactive: -14.4%. In the case of `CC(=O)c1ccc(Nc2nc3c(S(=O)(=O)c4ccccc4)nnn3c3ccc(Cl)cc23)cc1` it was inactive: 0%.

`CCSc1oc(-c2ccco2)nc1S(=O)(=O)c1ccc(Br)cc1`: the “activity change, positive = activation” value is inactive: -9.11%. In the case of `Cc1ccc(NC(=O)Cn2c(=O)c3ccccc3n3nncc23)cc1` it was inactive: -14.2%. The entry for `Cc1[nH]c(=O)c(C#N)cc1-c1ccncc1` is “inactive”; for `CCN1c2ccccc2-c2nc(SCC(=O)NCc3ccccc3)ncc2S1(=O)=O` it is inactive: -26%.

For `COC(=O)CCNC(=O)NC(CCC(C)C)c1c(-n2cccc2)sc2c1CCN(C)C2` (stereo not drawn), the “activity change, positive = activation” value was inactive: 1.88%. For `COc1ccccc1NC(=O)Cn1c(=O)n(CCC(=O)NCC2CCCO2)c(=O)c2cc(OC)c(OC)cc21` (stereo not drawn), the “activity change, positive = activation” value was inactive: -0.499%. The figure for `COc1ccccc1-c1cc2nc(C)c(CCC(=O)O)c(C)n2n1` is inactive: -82.5%. In the case of `CCC(=O)N1CCc2cc(S(=O)(=O)NCCC(=O)Nc3cc(C)ccc3OC)ccc21` it was inactive: -5.65%; in that of `Cc1ccc2nc(-c3ccc(O)cc3)c(Nc3ccc(Cl)cc3)n2c1`, inactive: -26.4%. The figure for `Cc1ccc(-c2nn(-c3ccc(F)cc3)c3c2cnc2cc(F)c(F)cc23)cc1` is inactive: -16.2%. With `CCCN(CCC)C(=O)Cn1c(=O)n(-c2ccc(Cl)cc2)c(=O)c2c3c(sc21)CCCCC3`, the “activity change, positive = activation” value is inactive: -8.74%. In the case of `COc1cc(NC(=O)c2cc3c(s2)-c2ccccc2OC3)cc(OC)c1OC`, the “activity change, positive = activation” value was inactive: -24.7%. The figure for `CCCc1cc(=O)[nH]c(SCC(=O)N2CCN(c3ccccc3OC)CC2)n1` is inactive: -16.3%. In the case of `COc1cccc(-n2c(=O)c3c(C)c(C)sc3n(CC(=O)Nc3ccccc3OC)c2=O)c1` it was inactive: 10.2%. Consider `Cc1ccccc1CC1C(=O)Nc2ccc(Br)cc21` (stereo not drawn), for which the “activity change, positive = activation” value is inactive: -24.1%. In the case of `Cn1c(=O)n(C)c2cc(N3CCOCC3)c(NS(=O)(=O)c3ccc(C(C)(C)C)cc3)cc21` it was inactive: -15.5%. In the case of `CCOc1cccc(C(=O)N(Cc2ccc(N(C)C)cc2)CC2CCCO2)c1` (stereo not drawn) it was inactive: -17%; in that of `CCOc1ccc(N(C(=O)c2ccccc2F)S(=O)(=O)c2ccc3c(c2)n(C)c(=O)n3C)cc1`, inactive: -12.3%. In the case of `Cc1ccc(C(=O)CCC(=O)Nc2ccc(C)cc2C)cc1` it was inactive: -4.32%; in that of `CCc1ccccc1NC(=O)N1CCC(CN2CCc3ccccc3C2)CC1`, inactive: -7.3%; in that of `CC1CCN(S(=O)(=O)c2ccc3c(ccc(=O)n3CC(=O)Nc3ccc(C(C)C)cc3)c2)CC1`, inactive: -24.9%. For `Nc1nc(SCC(=O)Nc2cccc(C(F)(F)F)c2)n[nH]1`, the “activity change, positive = activation” value was inactive: -7.39%. The figure for `CCOC(=O)c1c(-c2ccc(C)cc2)csc1NC(=O)c1cc(-c2ccc(Cl)cc2)on1` is inactive: -12.3%; for `C[Se]CCC(N)C(=O)O` (stereo not drawn) it is inactive: -17.4% [at 116 µM, percent change from vehicle, -100% = no light].

As for `Cn1cc(CCC(=O)NCc2ccc(Cl)cc2)c2ccccc21`, the “activity change, positive = activation” value was inactive: -17.3%. In the case of `Cc1cc(C)cc(NS(=O)(=O)c2ccc(-n3cccn3)cc2)c1` it was inactive: -34.6%. The figure for `COCCCNC(=O)c1oc2c(c1C)-c1nn(Cc3ccc(Cl)cc3)cc1CC2` is inactive: -41.2%; for `COc1ccc(-c2cccc(NS(=O)(=O)c3ccc(C)s3)c2)nn1` it is inactive: -22.5%; for `CCOc1cc(CNc2ccc(C(=O)O)cc2)ccc1OCc1ccccc1` it is inactive: -27.3%.

For `CC1CCC(Nc2ncnc3onc(-c4ccc(F)cc4)c23)CC1` (stereo not drawn), the “activity change, positive = activation” value was inactive: -26.1%.

On to `O=C(O)c1c(-c2ccccc2)oc2ccc(OCc3ccc(Cl)c(Cl)c3)cc12`, for which the “activity change, positive = activation” value is inactive: -6.88%. In the case of `CCOc1ccccc1NC(=O)c1c(NCc2ccc(C)o2)sc2c1CCC(C)C2` (stereo not drawn) it was inactive: 9.03%.

On to `COc1ccc(S(=O)(=O)Nc2ccc3oc4c(c3c2)C(=O)CC(C)(C)C4)cc1`, for which the “activity change, positive = activation” value was inactive: -34.5%. In the case of `COc1cccc(C(=O)Nc2cccc(NC(=O)c3ccc(Cl)cc3Cl)c2)c1` it was inactive: 0.78%; in that of `CCCCN(C)C(=O)Cn1c(C2CC(=O)N(c3ccc(C)cc3)C2)nc2ccccc21` (stereo not drawn), inactive: -5.92%; in that of `CCC(C)Nc1sc(S(=O)(=O)CC)nc1S(=O)(=O)c1ccc(C)cc1` (stereo not drawn), inactive: -16.2%. In the case of `CCOc1ccc(CNC(=O)CCCn2nc(C)c3sc4ccccc4c3c2=O)cc1` it was inactive: -8.04%; in that of `COC(=O)c1cc(S(=O)(=O)NCC2CCN(Cc3ccc(C)cc3)CC2)cn1C`, inactive: 0.146%. The figure for `Cc1cccc(NS(=O)(=O)c2ccc3c(c2)[C@H]2C=CC[C@H]2[C@@H](c2ccc(F)cc2)N3)c1` is inactive: -20.5%; for `CCc1ccc(C(=O)c2cn(CC(=O)Nc3cc(OC)ccc3OC)c3ccc(C)cc3c2=O)cc1` it is inactive: -16.4%; for `CCCOc1ccc(-c2nn(-c3ccccc3)cc2C2NC(=O)NC(C)=C2C(=O)OC)cc1` (stereo not drawn) it is inactive: -16.7%. Take `Cc1ccc(C)c(NC(=O)Cn2c(=O)nc(-c3ccccc3)c3ccccc32)c1`: the “activity change, positive = activation” value was inactive: 2.71%. In the case of `COc1ccc(-c2nc(CCNC(=O)c3cccs3)cs2)cc1` it was inactive: -21.8%. The figure for `CNC(=O)Cn1nc(-c2ccc(Cl)cc2)c2ccccc2c1=O` is inactive: 7.3% [at 11.5 µM, percent change from vehicle, -100% = no light].
